This is an account of results in the supplement of paper PMC4604168 (melanoma cell lines).

SMILES strings stand for the structures. This is one part of the list. Repeats are few or missing, and single values can be far off.
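Also: cells treated in 1,536-well plates, then fixed and DAPI-stained, with nuclei counted from automated high-throughput microscope images.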

This test relates to C32. Kind of test: cell count relative to DMSO control; melanoma cells; higher = more viable cells. The note with it: library dose: standard library concentration; 72 h.
For `Cc1cc(Nc2cc(N3CCN(C)CC3)nc(Sc3ccc(NC(=O)C4CC4)cc3)n2)n[nH]1` [Tozasertib] + CC(=O)O[C@@]12CO[C@@H]1C[C@H](O)[C@@]1(C)C(=O)[C@H](O)C3=C(C)[C@@H](OC(=O)[C@H](O)[C@@H](NC(=O)OC(C)(C)C)c4ccccc4)C[C@@](O)([C@@H](OC(=O)c4ccccc4)[C@H]21)C3(C)C [Docetaxel] (first compound 0.03 µM, partner dose 0.0005 µM), the cell count amounted to 62.9%.

`CC[C@]1(O)C[C@H]2CN(CCc3c([nH]c4ccccc34)[C@@](C(=O)OC)(c3cc4c(cc3OC)N(C=O)[C@H]3[C@@](O)(C(=O)OC)[C@H](OC(C)=O)[C@]5(CC)C=CCN6CC[C@]43[C@@H]65)C2)C1` [vincristine] + Oc1nc(-c2ccc(C(F)(F)F)cc2)nc2c1CSCC2 [XAV939] (first compound 0.0005 µM, partner dose 10 µM) yielded a cell count of 94.1%.

`CC[C@]1(O)C[C@H]2CN(CCc3c([nH]c4ccccc34)[C@@](C(=O)OC)(c3cc4c(cc3OC)N(C=O)[C@H]3[C@@](O)(C(=O)OC)[C@H](OC(C)=O)[C@]5(CC)C=CCN6CC[C@]43[C@@H]65)C2)C1` [vincristine] + c1cc(-c2cnn3cc(-c4ccc(OCCN5CCCCC5)cc4)cnc23)ccn1 [Dorsomorphin] (first compound 0.0005 µM, partner dose 2 µM) yielded a cell count of 62.5%.

In turn, `Cc1cc(Nc2cc(N3CCN(C)CC3)nc(Sc3ccc(NC(=O)C4CC4)cc3)n2)n[nH]1` [Tozasertib] + COc1ccc(-c2ccc3c(N4CCOCC4)nc(N4C[C@@H](C)O[C@@H](C)C4)nc3n2)cc1CO [KU0063794] (first compound 0.03 µM, partner dose 0.1 µM) registered a cell count of 79.5%.

Turning to `CC[C@]1(O)C[C@H]2CN(CCc3c([nH]c4ccccc34)[C@@](C(=O)OC)(c3cc4c(cc3OC)N(C=O)[C@H]3[C@@](O)(C(=O)OC)[C@H](OC(C)=O)[C@]5(CC)C=CCN6CC[C@]43[C@@H]65)C2)C1` [vincristine] + O=C(Nc1cc(C(F)(F)F)cc(C(F)(F)F)c1)c1cc(Cl)ccc1O [IMD0354] (first compound 0.0005 µM, partner dose 0.08 µM), the cell count was 83.7%.

`N#CC[C@H](C1CCCC1)n1cc(-c2ncnc3[nH]ccc23)cn1` [ruxolitinib] + Nc1cccc2c1CN(C1CCC(=O)NC1=O)C2=O [lenalidomide] (first compound 5 µM, partner dose 5 µM) gave a cell count of 95.2%.

Take `CC[C@]1(O)C[C@H]2CN(CCc3c([nH]c4ccccc34)[C@@](C(=O)OC)(c3cc4c(cc3OC)N(C=O)[C@H]3[C@@](O)(C(=O)OC)[C@H](OC(C)=O)[C@]5(CC)C=CCN6CC[C@]43[C@@H]65)C2)C1` [vincristine] + COCC[n+]1c2c(n(Cc3cnccn3)c1C)C(=O)c1ccccc1C2=O [YM155] (first compound 0.0005 µM, partner dose 0.002 µM): the cell count was 101%.

The compound `Cc1cc(Nc2cc(N3CCN(C)CC3)nc(Sc3ccc(NC(=O)C4CC4)cc3)n2)n[nH]1` [Tozasertib] + O=C(CCCCCCC(=O)Nc1ccccc1)NO [vorinostat] (first compound 0.03 µM, partner dose 0.4 µM) yielded a cell count of 79.5%.

`N#CC[C@H](C1CCCC1)n1cc(-c2ncnc3[nH]ccc23)cn1` [ruxolitinib] + CN(c1ncccc1CNc1nc(Nc2ccc3c(c2)CC(=O)N3)ncc1C(F)(F)F)S(C)(=O)=O [PF562271] (first compound 5 µM, partner dose 0.4 µM) displayed a cell count of 55.6%.

The compound `N#CC[C@H](C1CCCC1)n1cc(-c2ncnc3[nH]ccc23)cn1` [ruxolitinib] + CC(=O)O[C@@]12CO[C@@H]1C[C@H](O)[C@@]1(C)C(=O)[C@H](O)C3=C(C)[C@@H](OC(=O)[C@H](O)[C@@H](NC(=O)OC(C)(C)C)c4ccccc4)C[C@@](O)([C@@H](OC(=O)c4ccccc4)[C@H]21)C3(C)C [Docetaxel] (first compound 5 µM, partner dose 0.0005 µM) gave a cell count of 82.9%.

In the case of `N#CC[C@H](C1CCCC1)n1cc(-c2ncnc3[nH]ccc23)cn1` [ruxolitinib] + C=C(c1ccc(C(=O)O)cc1)c1cc2c(cc1C)C(C)(C)CCC2(C)C [Bexarotene] (first compound 5 µM, partner dose 10 µM), the cell count came out at 118%.
